Variants at the background level are over-represented here.
B1: tRNA (parent)
chain: CUCUCGGUAGCCAAGUUGGUUUAAGGCGCAAGACUUUAAUUUAUCACUACGAAAUCUUGAGAUCGGGCGUUCGACUCGCCCCCGGGAGAUUUUUUCCUCGAGCAA

Variants of: B1
Test: nonsense suppression (GFP-seq) (ratio to wild type); higher = more function; SUP4oc tRNA, yeast GFP reporter sort-seq
Summary of the method: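 Nonsense suppression (GFPSEQ) is the median GFP/RFP ratio of each sorting bin, weighted by the variant's estimated share of cells in that bin and expressed relative to the unmutated parent tRNA. Yeast strains carried genome-integrated variants of an ochre-suppressor tRNA from a library with ~3% random mutations, plus a galactose-driven GFP ochre reporter and RFP, and were grown in raffinose/galactose medium containing 80 mg/L adenine. Cells were sorted into GFP/RFP bins, each bin was Illumina-sequenced (phred ≥30), and variants were kept only with ≥100 reads and ≥30 cells.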

Nonsense suppression, ≤ 0.026:
CUCUCCGUAGCCAAGUUGGUUUACGGCGCAAGACUUUAAUUUAUCACUACGAAAUCUUGAGAUCGGGCGUUCGACUCGCCCCCGGGAGAUUUUUUCCUCGAGCAA [G6C A24C]
CUCUCCGUAGCCAAGUUGGUUUAUGGCGCAAGACUUUAAUUUAUCACUACGAAAUCUUGAGAUCGGGGGUUCGACUCGCCCCCGGGAGAUUUUUUCCUCGAGCAA [G6C A24U C68G]
CUCUCCGUAGCCAAGUUGGUUUAAGGCGCAAGGCUUUAAUUUAUCACUACGAAAUCUUGAGAUCGGGCGUUCGACUCGCCCCCGGGAGAUUUUUUCCUCGAGCAA [G6C A33G]
CUCUCCGUAGCCAAGUUGGUUUAAGGCGCAAGUCUUUAAUUUAUCACUACGAAAUCUUGAGAUCGGGCGUUCGAAUCGCCCUCGGGAGAUUUUUUCCUCGAGCAA [G6C A33U C75A C82U]
CUCUCCGUAGCCAAGUUGGUUUAAGGCGCAAGACUUUAAUUUAUCACUACGAAUUCUUGAGAUCGGGCGUUCGAUUCGCCCCCGGGAGAUUUUUUCCUCGAGCAA [G6C A54U C75U]
CUCUCCGUAGCCAAGUUGGUUUAAGGCGCAAGACUUUAAUUUAUCACUACGAAAUCUUGCGAUCGGGCGUUCGAAUCGCCCCCGGGAGAUUUUUUCCUCGAGCAA [G6C A60C C75A]
CUCUCCGUAGCCAAGUUGGUUUAAGGCGCAAGACUUUAAUUUAUCACUACGAAAUCUUGAGUUCGGGCGUUCGACUCGCCCCCGGGAGAUUUUUUCCUCGAGCAA [G6C A62U]
CUCUCCGUAGCCAAGUUGGUUUAAGGCGCAAGACUUUAAUUUAUCACUACGAAAUCUUGAGAUCGGGCGUUCGCCUCGCCCCUGGGAGAUUUUUUCCUCGAGCAA [G6C A74C C83U]
CUCUCCGUAGCCAAGUUGGUUUAAGGCGCAAGACUUUAAUUUAUCACUACGAAAUCUUGAGAUCGGGCGUUCGACUCGCCCCCGGGUGAUUUUUUCCUCGAGCAA [G6C A87U]
CUCUCCGUAGUCAAGUUGGUUUAAGGCGCAAGACUUUAAUUUAUCACUACGAAAUCUUGAGAUCGGGCGUUCGACUCACCCCCGGGAGAUUUUUUCCUCGAGCAA [G6C C11U G78A]
CUCUCCGUAGCCAAGUUGGUUUAAGGUGCAAGACUUUAAUUUAUCACUACGAAAUCUUGAGAUCGGGCGUUCGACUCGCCCCCGGGAGAUUUUUUCCUCGAGCAA [G6C C27U]
CUCUCCGUAGCCAAGUUGGUUUAAGGCGGAAGACUUUAAUUUAUCACUACGAAAUCUUGAGAUCGGGCGUUCGACUCGCCCCCGGGGGAUUUUUUCCUCGAGCAA [G6C C29G A87G]
CUCUCCGUAGCCAAGUUGGUUUAAGGCGCAAGAGUUUAAUUUAUCACUACGAAUUCUUGAGAUCGGGCGUUCGACUCGCCCCCGGGAGAUUUUUUCCUCGAGCAA [G6C C34G A54U]
CUCUCCGUAGCCAAGUUGGUUUAAGGCGCAAGAUUUUAAUUUAUCACUACGAAAUCUUGAGGUCGGGCGUUCGACUCGCCCCCGGGAGAUUUUUUCCUCGAGCAA [G6C C34U A62G]
CUCUCCGUAGCCAAGUUGGUUUAAGGCGCAAGACUUUAAUUUAUCACUACGAAAUAUUGAGAUCGGGCGUUCGACGCGCCCCCGGGAGAUUUUUUCCUCGAGCAA [G6C C56A U76G]
CUCUCCGUAGCCAAGUUGGUUUAAGGCGCAAGACUUUAAUUUAUCACUACGAAAUCUUGAGAUCGGGCGUUUGACUCGCCCCCGGGAGAUUUUUUCCUCGAGCAA [G6C C72U]
CUCUCCGUAGCCAAGUUGGUUUAAGGCGCAAGACUUUAAUUUAUCACUACGAAAUCUUGAGAUCGGGCGUUCGAAUCGCCCCCGGGAGAUUUUUUCCUCGAGCAA [G6C C75A]
CUCUCCGUAGCCAAGUUGGUUUAAGGCGCAAGACUUUAAUUUAUCACUACGAAAUCUUGAGAUCGGGCGUUCGACUCGCUCCCGGGAGAUUUUUUCCUCGAGCAA [G6C C80U]
CUCUCCGUAGCCAAGUUGGUUUAAGGCGCAAGACUUUAAUUUAUCACUACGAAAUCUUGAGAUCGGGCGUUCGACUCGCCUCCGGGAGAUUUUUUCCUCGAGCAA [G6C C81U]
CUCUCCGUAGCCAAGUUGGUUUAAGGCGCAAGACUUUAAUUUAUCACUACGAAAUCUUGAGAUCGGGCGUUCGACUCGCCCGCGGGAGAUUUUUUCCUCGAGCAA [G6C C82G]
CUCUCCGUAGCCAAGUUGGUUUAAGGCGCAAGACUUUAAUUUAUCACUACGAAAUCUUGAGAUCGGGCGUUCGACUCGCCCUCGGGAGAUUUUUUCCUCGAGCAA [G6C C82U]
CUCUCCCUAGCCAAGUUGGUUUAAGGCGCAAGACUUUAAUUUAUCACUACGAAAUCUUGAGAUCGGGCGUUCGACUCGCCCCCGGGAGAUUUUUUCCUCGAGCAA [G6C G7C]
CUCUCCGUAACCAAGUUGGUAUAAGGCGCAAGACUUUAAUUUAUCACUACGAAAUCUUGAGAUCGGGCGUUCGACUCGCCCCCGGGAGAUUUUUUCCUCGAGCAA [G6C G10A U21A]
CUCUCCGUACCCAAGUUGGUUUAAGGCGCAAGACUUUAAUUUAUCACUACGAAAUCUUGAGAUCGGGCGUUCGACUCGCCCCCGGGAGAUUUUUUCCUCGAGCAA [G6C G10C]
CUCUCCGUACCCAAGUUGGUUUACGGCGCGAGACUUUAAUUUAUCACUACGAAAUCUUGAGAUCGGGCGUUCGACUCGCCCGCGGGAGAUUUUUUCCUCGAGCAA [G6C G10C A24C A30G C82G]
CUCUCCGUAUCCACGUUGGUUUAAGGCUCAAGACUUUAAUUUAUCACUACGAAACCUUGGGAUCGGGCGUUCGACUCGCCCCCGGGAGAUUUUUUCCUCGAGCAA [G6C G10U A14C G28U U55C A60G]
CUCUCCGUAGCCAAGUUGAUUUAAGGCGCAAGACUUUAAUUUAUCACUACGAAACCUUGAGAUCGGGCGGUCGACUCGCCCCCGGGAGAUUUUUUCCUCGAGCAA [G6C G19A U55C U70G]
CUCUCCGUAGCCAAGUUGCUUUAAGGCGCAAGAUUUUAAUUUAUCACUACGAAAUCUUGAGAUCGGGCGUUCGAAUCGCCCCCGGGAACUUUUUUCCUCGAGCAA [G6C G19C C34U C75A G88A A89C]
CUCUCCGUAGCCAAGUUGGUUUAAUGCGCAAGACUUUAAUUUAUCACUACGAAAUCUUGAGAGCGGGCGUUCGACUCGCCCCCGGGAGAUUUUUUCCUCGAGCAA [G6C G25U U63G]
CUCUCCGUAGCCAAGUUGGUUUAAGGCGCAAAACUUUAAUUUAUCACUACGAAAUAUUGAGAUCGGGCGUUCGACUCGCCCCCGGGAGAUUUUUUCCUCGAGCAA [G6C G32A C56A]
CUCUCCGUAGCCAAGUUGGUUUAAGGCGCAAGACUUUAAUUUAUCACUACGAAAUCUUCAGAUCGGGCGUUCGACUCGCCCCCGGGAGAUUUUUUCCUCGAGCAA [G6C G59C]
CUCUCCGUAGCCAAGUUGGUUUAAGGCGCAAGACUUUAAUUUAUCACUACGAAAUCUUGAGAUCAUGCGUUCGACUCGCCCCCGGGAGAUUUUUUCCUCGAGCAA [G6C G65A G66U]
CUCUCCGUAGCCAAGUUGGUUUAAGGCGCAAGACUUUAAUUUAUCACUACGAAAUCUUGAGAUCGCGCGUUCGACUCGCCACCGGGAGAUUUUUUCCUCGAGCAA [G6C G66C C81A]
CUCUCCGUAGCCAAGUUGGUUUAAGGCGCAAGACUUUAAUUUAUCACUACGAAAUCUUGAGAUCGUGCGUUCGACUCGCCCCCGGGAGAUUUUUUCCUCGAGCAA [G6C G66U]
CUCUCCGUAGCCAAGUUGGUUUAAGGCGCAAGACUUUAAUUUAUCACUACGAAAUCUUGAGAUCGGGCAUUCGACUCGCCCCCGGGAGAUUUUUUCCUCGAGCAA [G6C G69A]
CUCUCCGUAGCCAAGUUGGUUUAAGGCGCAAGACUUUAAUUUAUCACUACGAAAUCUUGAGAUCGGGCUUUCGACUCGCCCCCGGGAGAUUUUUUCCUCGAGCAA [G6C G69U]
CUCUCCGUAGCCAAGUUGGUUUAAGGCGCAAGACUUUAAUUUAUCACUACGAAAUCUUGAGAUCGGGCGUUCAACUCGCCCUCGGGAGAUUUUUUCCUCGAGCAA [G6C G73A C82U]
CUCUCCGUAGCCAAGUUGGUUUAAGGCGCAAGACUUUAAUUUAUCACUACGAAAUCUUGAGAUCGGGCGUUCCACUCGCCCCCGGGAGAUUUUUUCCUCGAGCAA [G6C G73C]
CUCUCCGUAGCCAAGUUGGUUUAAGGCGCAAGACUUUAAUUUAUCACUACGAAAUCUUGAGAUCGGGCGUUCGACUCGCCCCCCGGAGAUUUUUUCCUCGAGCAA [G6C G84C]
CUCUCCGUAGCCAAGUUGGUUUAAGGCGCAAGACUUUAAUUUAUCACUACGAAAUCUUGAGAUCGGGCGUUCGACUCGCCCCCGGAAGAUUUUUUCCUCGAGCAA [G6C G86A]
CUCUCCGUAGCCAAGUUGGUUUAAGGCGCAAGACUUUAAUUUAUCACUACGAAAUCUUGAGAUCGGGCGUUCGACUCGCCCCCGGACGAUUUUUUCCUCGAGCAA [G6C G86A A87C]
CUCUCCGUAGCCAAGUUGGUUUAAGGCGCAAGACUUUAAUUUAUCACUACGAAAUCUUGAGAUCGGGCGUUCGACUCGCCCCCGGGAAAUUUUUUCCUCGAGCAA [G6C G88A]
CUCUCCGGAGCCAAGUUGGUUUAAGGCGCAAGACUUUAAUUUAUCACUACGAAAUCUUGAGAUCGGGCGUUCGACUCGCCCCCGGGAGAUUUUUUCCUCGAGCAA [G6C U8G]
CUCUCCGGAGCCAAGGUGGUUUAAGGCGCAAGACUUUAAUUUAUCACUACGAAAUCUUGAGAUCGGGCGUUCGACGCGCUCCCGGGAGAUUUUUUCCUCGAGCAA [G6C U8G U16G U76G C80U]
CUCUCCGUAGCCAAGGUGGUUUAAGGCGCAAGACUUUAAUUUAUCACUACGAAAUCUUGAGAUCGGGCGUUCGACUCGCCCCCGGGAGAUUUUUUCCUCGAGCAA [G6C U16G]
CUCUCCGUAGCCAAGGUGGUUUAAUGCGCAAGACUUUAAUUUAUCACUACGAAACCUUGAGAUCGGGCGUUCGACUCGCCCCCGGGAGAUUUUUUCCUCGAGCAA [G6C U16G G25U U55C]
CUCUCCGUAGCCAAGUCGGUUUAAGGCGCAAGACUUUAAUUUAUCACUACGAAAUCUUGAGAUCGGGCGUUCGACUCGCCCCCGGGAGAUUUUUUCCUCGAGCAA [G6C U17C]
CUCUCCGUAGCCAAGUGGGUUUAAGGCGCAAGACUUUAAUUUAUCACUACGAAAUCUUGAGAUCGGGCGUUCGACUCGCCCCCGGGAGAUUUUUUCCUCGAGCAA [G6C U17G]
CUCUCCGUAGCCAAGUGGGUUUAAGGCGCAAGACUUUAAUUUAUCACUACGAAAUCUUGAGAUCGGGCAUGCGACUCGCCCCCGGGAGAUUUUUUCCUCGAGCAA [G6C U17G G69A U71G]
CUCUCCGUAGCCAAGUUGGAUUAAGGCGCAAGACUUUAAUUUAUCACUACGAAAUCUUGAGAUCGGGCGUUCGACUCGCCCCCGGGAGAUUUUUUCCUCGAGCAA [G6C U20A]
CUCUCCGUAGCCAAGUUGGAUUAAGGCGCAAGACUUUAAUUUAUCACUACGAACUCUUGAGAUCGGGCGUGCGACUCGCCCCCGGGAAAUUUUUUCCUCGAGCAA [G6C U20A A54C U71G G88A]
CUCUCCGUAGCCAAGUUGGAAUAAGGCGCAAGACUUUAAUUUAUCACUACGAAAUCUUGAGAUCGGGCGUUCGACUCGCCACCGGGAGAUUUUUUCCUCGAGCAA [G6C U20A U21A C81A]
CUCUCCGUAGCCAAGUUGGAAUAAGGCGCAAGACUUUAAUUUAUCACUACGAAAUCUUGAUAUCGGGCGUUCGACUCGCCCCCGGGAGAUUUUUUCCUCGAGCAA [G6C U20A U21A G61U]
CUCUCCGUAGCCAAGUUGGGUUAACGCGCAAGACUUUAAUUUAUCACUACGAAAUCUUGAGAUCGGGCGUUCGACUUGCCCCCGGGAGAUUUUUUCCUCGAGCAA [G6C U20G G25C C77U]
